The source of these data is the antibiotic and cytotoxicity screens of Wong et al. (2023).

Molecules are shown by their SMILES. This is one part of the list.

The first assay concerns HSkMC (human skeletal muscle cells). The experiment in a line: cytotoxicity call (relative viability < 0.9). The note with it: 10 µM.
For the compound `COCC(=O)N(C)C[C@H]1Oc2cc(C#Cc3ccccc3)ccc2S(=O)(=O)N([C@@H](C)CO)C[C@H]1C`, the cytotoxicity call was “inactive”.
On the same count and under the same terms, as for `C[C@H](CO)N1C[C@H](C)[C@H](CN(C)C(=O)NC2CCCCC2)Oc2ccc(NC(=O)Cn3cnnn3)cc2CC1=O`, the entry is “inactive”.
The same measure, in the same setting: as for `Cn1nc(CCO)cc1C(F)(F)F`, the entry is “inactive”; as for `COC1=C(OC)C(=O)C(CCCCCCCCCC[P+](c2ccccc2)(c2ccccc2)c2ccccc2)=C(C)C1=O`, “active”.
On the same count and under the same terms, the same measure for `C[C@H]1CCCCO[C@@H](CN(C)S(=O)(=O)c2cccs2)[C@@H](C)CN([C@@H](C)CO)C(=O)c2cc(NC(=O)NC3CCCCC3)ccc2O1`: “inactive”; for `C[C@@H]1CCCCO[C@H](CN(C)C(=O)CCCN(C)C)[C@@H](C)CN([C@H](C)CO)C(=O)c2cc(NC(=O)Nc3cccc4ccccc34)ccc2O1`: “inactive”.
Take `COc1cccc(S(=O)(=O)N(C)C[C@H]2OCc3cnnn3CCCC(=O)N([C@@H](C)CO)C[C@H]2C)c1`: the cytotoxicity call was “inactive”.
Same read-out and setting: the same measure for `O=C([C@H]1N[C@H]2c3ccc(-c4ccc(F)cc4)c(=O)n3C[C@H]2[C@@H]1CO)N1CCOCC1`: “inactive”.

The subject of the next assay is HepG2. The experiment in a line: cytotoxicity call (relative viability < 0.9). The note with it: 10 µM.
With `NC(=O)CSc1nc(N)cc(N)n1`, the cytotoxicity call was “inactive”.
Still for that read-out and setting: as for `COc1ccc([C@@H]([C@H](Cc2ccccc2)OC(C)=O)N2C[C@@H](CC(=O)N(C)C)[C@@H]3C(=NO[C@H]3c3ccccc3)[C@@H]2Cc2ccccc2)cc1`, the entry is “inactive”; as for `C[C@H](CO)N1C[C@H](C)[C@H](CN(C)S(=O)(=O)c2cccs2)Oc2ccc(NS(=O)(=O)c3cccs3)cc2CC1=O`, “inactive”; as for `CCNC(=O)C[C@@H]1CC[C@H]2[C@@H](COC[C@@H](O)CN2S(=O)(=O)c2ccc(Oc3ccccc3)cc2)O1`, “inactive”.
On the same count and under the same terms, as for `COc1ccc(NC(=O)Nc2ccc3c(c2)C(=O)N([C@H](C)CO)C[C@H](C)[C@H](CN(C)Cc2ccncc2)OCCCC[C@H](C)O3)cc1`, the entry is “inactive”; as for `C[C@@H]1CN([C@@H](C)CO)C(=O)Cc2cc(NC(=O)CCC(F)(F)F)ccc2O[C@@H]1CN(C)S(C)(=O)=O`, “inactive”.
Still for that read-out and setting: the same measure for `O=C(C[C@@H]1C=C[C@H](NC(=O)c2cccnc2)[C@@H](CO)O1)NCCN1CCCCC1`: “inactive”.
For the compound `N=C1NCCC(C2NC(=O)C(=CNC(N)=O)NC(=O)C(CNC(=O)CC(N)CCCN)NC(=O)C(CO)NC(=O)C(N)CNC2=O)N1.O=S(=O)(O)O` (configuration not stated), the cytotoxicity call was “inactive”.
On the same count and under the same terms, the same measure for `NC(=O)c1ccnc(Cl)c1`: “inactive”.
On the same count and under the same terms, the same measure for `C[C@H](CO)N1C[C@H](C)[C@H](CN(C)C(=O)CCC(F)(F)F)OCCCC[C@H](C)Oc2ccc(NC(=O)Nc3ccccc3)cc2C1=O`: “inactive”.
As for `O=C(C[C@@H]1CC=CCC[C@H](Cc2ccc(F)cc2)C(=O)OC[C@H](Cc2c[nH]c3ccccc23)NC1=O)N[C@@H](CO)Cc1ccccc1`, the cytotoxicity call is “inactive”.
Regarding `CCCC(=O)Nc1ccc2c(c1)C(=O)N(C)[C@H]1CC[C@H](CC(=O)NCCN3CCCCC3)O[C@@H]1CO2`, the cytotoxicity call is “inactive”.
The same measure, in the same setting: the same measure for `COCC#Cc1cnc2c(c1)C(=O)N([C@H](C)CO)C[C@@H](C)[C@H](CN(C)C(=O)Nc1ccccc1OC)O2`: “inactive”; for `CCSc1ncnc(N)n1`: “inactive”.
The same measure, in the same setting: the same measure for `C[C@H](CO)N1C[C@H](C)[C@H](CN(C)Cc2ccc(-c3ccccc3)cc2)Oc2ccc(NC(=O)Nc3ccc4c(c3)OCO4)cc2CC1=O`: “active”.
On the same count and under the same terms, as for `Cc1ccc(-c2cnc3c(c2)C(=O)N([C@@H](C)CO)C[C@H](C)[C@@H](CN(C)C(=O)Cc2ccncc2)O3)cc1`, the entry is “inactive”; as for `CC(=O)N1CCC(N)CC1`, “inactive”; as for `C[C@@H]1CN([C@H](C)CO)C(=O)c2cc(NC(=O)Nc3ccc(C(F)(F)F)cc3)ccc2O[C@H]1CN(C)Cc1ccccc1`, “active”.
In the case of `C[C@H]1CN([C@@H](C)CO)C(=O)c2cccc(NC(=O)Nc3ccc(C(F)(F)F)cc3)c2O[C@H]1CN(C)S(=O)(=O)c1ccc(F)cc1`, the cytotoxicity call is “inactive”.
Same read-out and setting: as for `CCC(=O)N(C)C[C@@H]1Oc2ncc(C#C[C@@H](C)O)cc2C(=O)N([C@H](C)CO)C[C@H]1C`, the entry is “inactive”; as for `C[C@@H]1CN([C@@H](C)CO)C(=O)CCCn2nncc2CO[C@@H]1CN(C)S(=O)(=O)c1ccc(-n2cccn2)cc1`, “inactive”.
The same measure, in the same setting: the same measure for `C[C@H](CO)N1C[C@H](C)[C@@H](CN(C)S(=O)(=O)c2ccccc2)Oc2ccc(NS(=O)(=O)c3cn(C)cn3)cc2C1=O`: “inactive”.
The same measure, in the same setting: as for `CCN(CC)C(=O)N1CCN(C)CC1.O=C(O)CC(O)(CC(=O)O)C(=O)O`, the entry is “inactive”; as for `Cc1cc(C)c(-c2ccc(NC(=O)[C@H](Cc3ccc(C(=O)NCCS(=O)(=O)O)cc3)c3ccc(-c4ccc(C(C)(C)C)cc4)cc3)cc2)c(C)c1`, “active”.
